Assay results taken from PubChem BioAssay AID662 (National Center for Advancing Translational Sciences (NCATS), 2007).
Where “and” joins values, the source holds several entries; their conditions need not be identical. Equal values may be shown once. Among all 71,000 compounds or so, about 1,800 (2.5%) were called active. The inconclusive results got no clear call from the source; some entries with a clear call stand among them for comparison. Calls follow the shape of the dose curve; as a rule, active = well fitted activation curve with a large enough effect in the signal ratio, with a control signal flat (not every such curve was filed as active); inconclusive = small, poorly fitted or top-dose-only effect, or effect the other way, or a change in a side signal; inactive = flat fitted curve, though single readings scatter; the % refers to the signal ratio. Potencies beside an inconclusive call are fits to weak or partial responses and may not hold up.

Assay: Cell signaling CRE-BLA (Fsk stim); as to activity change, negative = inhibition: % of control where 0% means no effect
Details: CHO CRE-bla reporter (cAMP response element driving beta-lactamase), forskolin EC10, beta-lactamase ratio; activity change, negative = inhibition: at 38.2 µM (top of the series) unless noted
Summary of the method: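 Cells were plated overnight at 37 °C, exposed to compound titrations plus EC10 NKH 477 for 3 h, then given CCF4 dye for 2 h at room temperature. Blue/green (460/530 nm) ratio was converted to %Activity and AC50 values calculated.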
Potency is read from the fitted curve at half-maximal effect; tags tell the direction and shape of the fitted curve.

Row | Structure (SMILES) | Potency | activity change, negative = inhibition
1 | COc1ccc(Nc2nc(N)nc(CSc3n[nH]c(-c4ccccc4)n3)n2)cc1 | inconclusive: 0.398 µM [rising, full curve, poor fit] | –
2 | COc1ccc(C)cc1NC(=O)CSc1nnc(-c2ccc(C)cc2)o1 | – | inactive
3 | CN1CCN(c2ncc3nc(-c4cn(C)c5ccccc45)c(=O)n(CCC#N)c3n2)CC1 | inconclusive: 3.98 µM [rising, partial curve] | –
4 | CCN1CCN(c2nc(-c3cccnc3)nc3ccccc23)CC1 | inconclusive: 12.6 µM [rising, single point] | –
5 | CCc1ccc(-c2nc(CN3CCC(C(=O)NCc4ccco4)CC3)c(C)o2)cc1 | – | inconclusive: 21.7%
6 | COC(=O)c1c(C(=O)OC)c2cc(C)ccn2c1Cl | inconclusive: 10 µM [rising, partial curve] | –
7 | O=C(c1ccc2c(=O)n(CC3CCCO3)c(=S)[nH]c2c1)N1CCN(c2ccccc2)CC1 (centres undefined) | – | inconclusive: 12.4%
8 | CCOCC(=O)Nc1ccc(S(=O)(=O)Nc2ncccn2)cc1 | – | inactive
9 | O=C(NCc1ccco1)c1cnn2c1NC(c1ccc(Br)cc1)CC2C(F)(F)F (centres undefined) | – | inconclusive: -20.6%
10 | COc1ccccc1CN1CCC2(CC1)CCN(C(=O)c1c(C)noc1C)CC2 | – | inactive
11 | FC(F)(F)c1cc(-c2ccco2)nc(-n2cnc3ccccc32)n1 | – | inconclusive: -5.94%
12 | Cc1c(C(=O)Nc2ccc3c(c2)OCO3)sc2nc(-c3ccccc3)cn12 | – | inactive
13 | FC(F)(F)c1ccccc1-c1nc(NCCN2CCOCC2)c2ccccc2n1 | inconclusive: 3.98 µM [rising, single point] | –
14 | CCCCC(=NCCO)C1=C(O)C(C(=O)OC)C(C)(C)CC1=O (centres undefined) | – | inconclusive: 2.26%
15 | O=C(Cc1nc2ccccc2s1)c1ccc(O)cc1O | – | inconclusive: 3.53%
16 | CCCOC1(NC(=O)c2ccccc2)C(C)=CC(=O)C=C1C | – | inconclusive: -3.11%
17 | COc1ccc(NC(=O)N2CC3(CCN(C(=O)c4cccc(F)c4)CC3)C2)cc1 | – | inactive
18 | CCCc1nc2ccccc2c(=O)n1/N=C/c1ccc(O)c(O)c1 | – | inconclusive: -11.9%
19 | COc1ccc(-c2cc(C(=O)NCCN3CCOCC3)c3ccccc3n2)c(OC)c1 | inconclusive: 25.1 µM [rising, single point] | –
20 | COc1cccc(Cn2c(=O)c(-c3cccs3)nc3cnc(N(C)C)nc32)c1 | inconclusive: 1 µM [rising, full curve] | –
21 | CCCCNC(=O)Nc1c(C(=O)OCC)[nH]c2ccccc12 | – | inactive

Row | Structure (SMILES) | Potency | activity change, negative = inhibition
22 | COc1ncc2nc(CCc3ccccc3)c(=O)n(Cc3ccc(F)cc3)c2n1 | inconclusive: 10 µM [rising, partial curve, poor fit] | –
23 | CCN(CC)CCCNc1nnc(C)c(=O)[nH]1 | – | inconclusive: 9.55%
24 | COc1cc(C2C(C(=O)c3ccc(C)o3)=C(O)C(=O)N2c2cc(C)on2)ccc1O (centres undefined) | – | inactive
25 | CCOC12NC(=O)CC(=O)N1C(c1ccccc1)=CS2 (centres undefined) | – | inconclusive: 1.88% [at 7.6 µM]
26 | O=C(C1=COCCO1)N1CCN(C(c2ccccc2)c2ccccc2)CC1 | – | inactive
27 | CC1(C)CC(=O)C2=C(C1)Nc1[nH]n(-c3ccccc3)c(=O)c1C2c1ccc2c(c1)OCO2 (centres undefined) | – | inactive
28 | COc1c(C)cccc1C(=O)Nc1ccc(N2CCN(S(C)(=O)=O)CC2)cc1 | – | inactive
29 | CCC(=O)NCCSc1c[nH]c2ccccc12 | – | inconclusive: -11%
30 | COc1c(Br)cc(Br)cc1/C=N/n1c(C)nnc1C | – | inactive
31 | COc1cccc(Cn2c(=O)c(-c3cccs3)nc3cnc(OCc4ccccc4)nc32)c1 | active: 1.26 µM | –
32 | COCCn1c(=O)c(-c2cccs2)nc2cncnc21 | active: 12.6 µM | –
33 | COc1cc2c(c(OC)c1OC)-c1ccc(OC)c(=O)cc1[C@H](NC(C)=O)CC2 | active: 10 µM and active: 2.51 µM | –
34 | CCc1ccc(C2C(C#N)=C(N)SC(N)=C2C#N)cc1 | inconclusive: 5.01 µM [rising, single point] | –
35 | COc1cccc(-c2nccc(N(C)Cc3ccco3)n2)c1 | – | inactive
36 | c1ccc(OCCOc2ncnc3sccc23)cc1 | – | inconclusive: -10.9%
37 | CN(C)c1ncnc2ccc(-c3ccccc3C(F)(F)F)cc12 | inconclusive: 12.6 µM [rising, partial curve] | –
38 | Cc1ccc(CN(C)C(=O)C2CCCN2C(=O)c2cccs2)o1 (centres undefined) | – | inconclusive: -7.53%
39 | CC(C)n1c(SCc2cc(=O)[nH]c3ccccc23)nc2c1c(=O)n(C)c(=O)n2C | inconclusive: 5.01 µM [rising, partial curve] | –
40 | COc1ccc(-n2nc3c(c2NC(=O)c2cc4ccccc4oc2=O)CS(=O)(=O)C3)cc1 | – | inactive
41 | O=C1c2ccccc2CC1Sc1nnc(-c2ccncc2)o1 (centres undefined) | – | inconclusive: -22.8%
42 | CCOC(=O)CCCCC(=O)c1[nH]c(=O)[nH]c1CSc1nc(C)cc(=O)[nH]1 | – | inactive

Row | Structure (SMILES) | Potency | activity change, negative = inhibition
43 | CNc1nc(-c2c(C)noc2C)nc2ccccc12 | inconclusive: 12.6 µM [rising, partial curve] | –
44 | N#CCSc1n[nH]c2nc3c(c(=O)n12)C1(CCCC1)Cc1ccccc1-3 | inconclusive: 15.8 µM [rising, partial curve] | –
45 | O=C(Nc1nc(-c2nc3ccccc3s2)cs1)C1COc2ccccc2O1 (centres undefined) | active: 3.98 µM | –
46 | COCCCNC(=O)CCc1nc2cccnc2n1Cc1ccccc1 | – | inconclusive: 8.49%
47 | Fc1ccc(-c2nnc(CN3CCC(c4nc5ccccc5s4)CC3)o2)cc1 | inconclusive: 5.01 µM [rising, single point] | –
48 | COc1cc(-c2nc3cnccc3n2C)cc(OC)c1OC | inconclusive: 12.6 µM [rising, single point] | –
49 | CC(=O)c1cc2ccccc2oc1=O | – | inactive
50 | O=C(O)c1cccnc1SC1CC(=O)N(Cc2ccccc2)C1=O (centres undefined) | – | inconclusive: 21.7%
51 | COc1cccc(OCCn2cc(C(=O)c3ccco3)c3ccccc32)c1 | – | inactive
52 | CS(=O)(=O)N1CCC2(CC1)CN(C(=O)Nc1cccc(C#N)c1)C2 | – | inactive
53 | CCN(C(=O)Cc1c(C(=O)O)[nH]c2ccccc12)c1cc(OC)ccc1OC | – | inactive
54 | C[C@](Cc1ccc(O)c(O)c1)(NN)C(=O)O | – | inconclusive: -6.1%
55 | CCc1nnc(NC(=O)c2ccc(N3C(=O)CCC3=O)cc2)s1 | – | inactive
56 | O=C(CSc1nc2ncccc2[nH]1)NCc1ccccc1 | inconclusive: 2 µM [falling, partial curve] | –
57 | CCOc1ccc(S(=O)(=O)n2c(C)nc3ccccc32)cc1 | – | inconclusive: 1.32%
58 | O=C(O)C1CC(=O)N(Cc2ccccc2)C1 (centres undefined) | – | inconclusive: -0.453%
59 | O=C(CCN1C(=O)C2C3C=CC(C3)C2C1=O)Nc1c(F)cc(F)cc1Br (centres undefined) | – | inconclusive: -7%
60 | Cc1cc(Nc2nc3c(c(=O)n(C)c(=O)n3C)n2C)n(-c2ccc(Cl)cc2)n1 | – | inconclusive: 20.7%
61 | COc1ccc(N2Cc3cccc(C(=O)N4CCOCC4)c3C2=O)cc1 | – | inconclusive: -2.6%
62 | O=C(CSc1nc2c(cnn2-c2ccc(F)cc2)c(=O)[nH]1)N1CCCCC1 | inconclusive: 10 µM [rising, partial curve] | –
63 | CCOC(=O)N1CCC(NC(=O)Cn2cccc2C(=O)c2ccccc2)CC1 | – | inconclusive: 10.7%

Row | Structure (SMILES) | Potency | activity change, negative = inhibition
64 | COc1ccc(-c2nnn(CCc3nn[nH]n3)n2)cc1OC | – | inconclusive: -29.6%
65 | CC(C)OC(=O)CC(=O)CSc1nc2c(cc1C#N)CCC2 | inconclusive: 10 µM [rising, single point] | –
66 | O=C(Cn1cccc1C(=O)c1ccccc1)NCc1ccccn1 | – | inconclusive: 7.36%
67 | O=C(NCCN1CCCC1=O)Nc1ccccc1 | – | inconclusive: -10.7%
68 | Cc1cccc(C)c1NC(=O)C1(NC(=O)C2CCCN2C(=O)OC(C)(C)C)CCCCC1 (centres undefined) | – | inconclusive: -15.6%
69 | CCOC(=O)c1[nH]c(C)c(C(=O)Nc2cc(OC)ccc2OC)c1C | active: 10 µM | –
70 | NC(=O)c1ccsc1NC(=O)CSc1nc2ccccc2c(=O)n1CCCO | inconclusive: 6.31 µM [rising, partial curve] | –
71 | O=c1nc2c(-c3ccccc3F)n[nH]n2c2ccccc12 | – | inconclusive: 16.9%
72 | O=C(Cn1cnc2c(oc3ccccc32)c1=O)N1CCCc2ccccc21 | – | inactive
73 | COCCn1cnc2c(c1=O)c1nc3ccccc3nc1n2/N=C/c1cccc(OC)c1OC | inconclusive: 0.251 µM [rising, full curve, poor fit] | –
74 | CC1(C)Cc2c(c(N3CCOCC3)nc3sc(C(=O)N4CCCCC4)c(N)c23)CO1 | – | inconclusive: 27%
75 | CC1CCc2cccc3c2N1c1cc(C#N)c(C#N)cc1O3 (centres undefined) | – | inconclusive: 5.96%
76 | CN(C)C(=O)c1nc(C#N)c(N(C)C)o1 | – | inconclusive: -14.2%
77 | O=C(CCCN=C1NS(=O)(=O)c2ccccc21)OCC(=O)N1CCc2ccccc21 | inconclusive: 3.98 µM [falling, single point] | –
78 | COc1ccccc1-c1nccc(NCc2cnc(C)cn2)n1 | – | inactive
79 | O=c1nc2n(c3sc4c(c13)CCC4)Cc1ccccc1-2 | – | inactive
80 | N#CCCn1c(=O)cnc2cnc(OCc3ccccc3)nc21 | active: 12.6 µM | –
81 | CCCc1ccc(OCc2ccc(C(=O)N3CCN(c4ccccn4)CC3)o2)c(OC)c1 | inconclusive: 25.1 µM [falling, single point] | –
82 | Cc1nc(NC2CCCCC2)c2nc(-c3ccccc3)n(CCCN3CCOCC3)c2n1 | active: 10 µM | –
83 | CCCN(CCC)C(C(=O)Nc1cccc(OC)c1)c1ccccc1 (centres undefined) | inconclusive: 25.1 µM [falling, single point] | –
84 | Cc1cc(C(F)F)n2ncc(C(=O)NCc3ccccc3)c2n1 | inconclusive: 12.6 µM [rising, single point] | –
